# Laboratory results reported in patent US20260144854.
# B1: porcine pancreatic elastase (PPE) (protein)
# chain: VVGGTEAQRNSWPSQISLQYRSGSSWAHTCGGTLIRQNWVMTAAHCVDRELTFRVVVGEHNLNQNDGTEQYVGVQKIVVHPYWNTDDVAAGYDIALLRLAQSVTLNSYVQLGVLPRAGTILANNSPCYITGWGLTRTNGQLAQTLQQAYLPTVDYAICSSSSYWGSTVKNSMVCAGGDGVRSGCQGDSGGPLHCLVNGQYAVHGVTSFVSRLGCNVTRKPTVFTRVSAYISWINNVIASN
# Target: alpha-1-anti-trypsin (A1AT), P01009
# Sequence (P01009 whole entry, looked up): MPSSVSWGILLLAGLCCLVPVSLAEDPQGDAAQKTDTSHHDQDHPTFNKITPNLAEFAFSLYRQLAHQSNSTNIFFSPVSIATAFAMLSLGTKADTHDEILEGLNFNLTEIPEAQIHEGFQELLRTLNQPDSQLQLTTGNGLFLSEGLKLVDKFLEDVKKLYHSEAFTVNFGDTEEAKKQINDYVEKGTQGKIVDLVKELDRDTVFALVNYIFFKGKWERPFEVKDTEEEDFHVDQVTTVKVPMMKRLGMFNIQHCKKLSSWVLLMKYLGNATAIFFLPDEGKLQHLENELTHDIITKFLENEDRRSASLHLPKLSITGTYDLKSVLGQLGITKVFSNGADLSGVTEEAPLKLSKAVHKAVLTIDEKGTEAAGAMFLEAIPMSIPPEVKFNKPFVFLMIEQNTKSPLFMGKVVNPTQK
protein,measurement,value
B1,elastase activity after incubation with A1AT (chromogenic substrate assay),Porcine pancrease protease (PPE) showed less susceptibility to alpha 1 anti-trypsin (A1AT) or serum blocking
